Test results reported in patent US10299477B2 (priority 2015, dated 2019).
Read-outs that look alike come from different tables or passages of the source.

Assays:
Magnaporthe grisea = format: in vivo; conditions: for Test A (control value class, blast on rice): in vivo
Phytophthora infestans = format: in vivo; conditions: for Test F control value: 250 ppm sprayed before inoculation; for Test F (control value class): 250 ppm spray; for Test F (control value class, late blight on tomato): 250 ppm, sprayed 2.5 ml/pot before inoculation
[1] = Late blight on tomato, 5-10 days after inoculation
[2] = rice blast, Magnaporthe grisea, 250 ppm spray
[3] = late blight on tomato, Phytophthora infestans, 5-10 days after inoculation
[4] = Blast on rice, control value=100{1-(n/3)}
[5] = Late blight on tomato, 2.5 ml/pot, evaluated 5-10 days after inoculation
[6] = evaluated 5-10 days after inoculation

COc1cc(OC)c(Br)c(-c2ccc(=O)n(C)c2-c2c(F)cccc2Br)c1 [Compound 184]
Test A control value (Magnaporthe grisea; Blast on rice): H (H shows more than 50% of control values)
Test F control value (Phytophthora infestans; [1]): H (H shows more than 50% of control values)

Cn1c(-c2c(F)cccc2F)c(-c2ccccc2F)ccc1=O [Compound 143]
Test A control value (Magnaporthe grisea; Blast on rice): H (H shows more than 50% of control values)
Test F control value (Phytophthora infestans; [1]): L (L shows 50% or less of control values)

COc1ccc(Cl)c(-c2ccc(=O)n(CC(F)(F)F)c2-c2c(F)cccc2F)c1 [Compound 409]
Test A (control value class) (Magnaporthe grisea; [2]): H (H shows more than 50% of control values)
Test F (control value class) (Phytophthora infestans; [3]): L (L shows 50% or less of control values)

CCn1c(-c2c(F)cccc2F)c(-c2cccc(OCOC)c2)ccc1=O [Compound 101]
Test A control value (Magnaporthe grisea; Blast on rice): H (H shows more than 50% of control values)
Test F control value (Phytophthora infestans; [1]): L (L shows 50% or less of control values)

CCn1c(-c2c(F)cc(F)cc2F)c(-c2ccccc2F)cc(Cl)c1=O [Compound 529]
Test A (control value class) (Magnaporthe grisea; [2]): H (H shows more than 50% of control values)
Test F (control value class) (Phytophthora infestans; [3]): L (L shows 50% or less of control values)

Cc1ccccc1-c1ccc(=O)n(C)c1-c1c(F)cccc1F [Compound 180]
Test A control value (Magnaporthe grisea; Blast on rice): H (H shows more than 50% of control values)
Test F control value (Phytophthora infestans; [1]): H (H shows more than 50% of control values)

Cc1cc(-c2cccc(F)c2F)c(-c2c(F)cccc2F)n(C)c1=O [Compound 538]
Test A (control value class) (Magnaporthe grisea; [2]): H (H shows more than 50% of control values)
Test F (control value class) (Phytophthora infestans; [3]): H (H shows more than 50% of control values)

COc1cc(OC)c(Cl)c(-c2ccc(=O)n(CC(F)(F)F)c2-c2c(F)cc(F)cc2F)c1 [Compound 377]
Test A (control value class) (Magnaporthe grisea; [2]): H (H shows more than 50% of control values)
Test F (control value class) (Phytophthora infestans; [3]): L (L shows 50% or less of control values)

CCn1c(-c2c(F)cccc2F)c(-c2cccc(F)c2Cl)cc(Cl)c1=O [Compound 507]
Test A (control value class) (Magnaporthe grisea; [2]): H (H shows more than 50% of control values)
Test F (control value class) (Phytophthora infestans; [3]): L (L shows 50% or less of control values)

O=c1c(Cl)cc(-c2cccc(Cl)c2F)c(-c2c(F)cccc2F)n1CC(F)F [Compound 495]
Test A (control value class) (Magnaporthe grisea; [2]): H (H shows more than 50% of control values)
Test F (control value class) (Phytophthora infestans; [3]): L (L shows 50% or less of control values)

CCn1c(-c2c(F)cccc2F)c(-c2cc(Cl)ccc2Cl)cc(C)c1=O [Compound 470]
Test A (control value class) (Magnaporthe grisea; [2]): H (H shows more than 50% of control values)
Test F (control value class) (Phytophthora infestans; [3]): L (L shows 50% or less of control values)

CCn1c(-c2c(F)cc(OC)cc2F)c(-c2cc(F)cc(F)c2Br)cc(Br)c1=O [Compound 820]
Test A (control value class) (Magnaporthe grisea; [4]): H (H shows more than 50% of control values)
Test F (control value class) (Phytophthora infestans; [5]): L (L shows 50% or less of control values)

CCn1c(-c2c(F)cccc2F)c(-c2cc(F)cc(F)c2F)ccc1=O [Compound 438]
Test A (control value class) (Magnaporthe grisea; [2]): H (H shows more than 50% of control values)
Test F (control value class) (Phytophthora infestans; [3]): L (L shows 50% or less of control values)

CCn1c(-c2c(F)cc(OC)cc2F)c(-c2ccccc2F)ccc1=O [Compound 530]
Test A (control value class) (Magnaporthe grisea; [2]): H (H shows more than 50% of control values)
Test F (control value class) (Phytophthora infestans; [3]): L (L shows 50% or less of control values)

COc1cc(F)c(-c2c(-c3cccc(F)c3Cl)cc(C)c(=O)n2C)c(F)c1 [Compound 517]
Test A (control value class) (Magnaporthe grisea; [2]): H (H shows more than 50% of control values)
Test F (control value class) (Phytophthora infestans; [3]): L (L shows 50% or less of control values)

CCOc1cc(F)c(-c2c(-c3ccccc3F)cc(Cl)c(=O)n2C)c(F)c1 [Compound 598]
Test A (control value class, blast on rice) (Magnaporthe grisea): H (H shows more than 50% of control values)
Test F (control value class, late blight on tomato) (Phytophthora infestans; [6]): L (L shows 50% or less of control values)

CCn1c(-c2c(F)cccc2F)c(-c2cc(OC)ccc2Cl)cc(Cl)c1=O [Compound 54, 3-chloro-5-(2-chloro-5-methoxyphenyl)-6-(2,6-difluorophenyl)-1-ethylpyridine-2(1H)-one]
Test A control value (Magnaporthe grisea; Blast on rice): H (H shows more than 50% of control values)
Test F control value (Phytophthora infestans; [1]): L (L shows 50% or less of control values)

Cc1cc(-c2cccc(Cl)c2F)c(-c2c(F)cccc2F)n(CC(F)F)c1=O [Compound 521]
Test A (control value class) (Magnaporthe grisea; [2]): H (H shows more than 50% of control values)
Test F (control value class) (Phytophthora infestans; [3]): L (L shows 50% or less of control values)

CCOc1ccc(Cl)c(-c2cc(Cl)c(=O)n(CC)c2-c2c(F)cccc2F)c1 [Compound 376]
Test A (control value class) (Magnaporthe grisea; [2]): H (H shows more than 50% of control values)
Test F (control value class) (Phytophthora infestans; [3]): L (L shows 50% or less of control values)

CCn1c(-c2c(F)cccc2F)c(-c2cc(Cl)ccc2F)ccc1=O [Compound 522]
Test A (control value class) (Magnaporthe grisea; [2]): H (H shows more than 50% of control values)
Test F (control value class) (Phytophthora infestans; [3]): L (L shows 50% or less of control values)

COc1ccc(Cl)c(-c2cc(Cl)c(=O)n(C(C)C)c2-c2c(F)cccc2F)c1 [Compound 413]
Test A (control value class) (Magnaporthe grisea; [2]): H (H shows more than 50% of control values)
Test F (control value class) (Phytophthora infestans; [3]): L (L shows 50% or less of control values)

Cn1c(-c2c(F)cc(F)cc2F)c(-c2cc(F)cc(F)c2Br)ccc1=O [Compound 815]
Test A (control value class) (Magnaporthe grisea; [4]): H (H shows more than 50% of control values)
Test F (control value class) (Phytophthora infestans; [5]): L (L shows 50% or less of control values)

CCn1c(-c2c(F)cc(F)cc2F)c(-c2cccc(F)c2Cl)cc(Br)c1=O [Compound 487]
Test A (control value class) (Magnaporthe grisea; [2]): H (H shows more than 50% of control values)
Test F (control value class) (Phytophthora infestans; [3]): L (L shows 50% or less of control values)

CN1C(=O)CCC(c2cccc(F)c2)=C1c1c(F)cccc1F [Compound 172]
Test A control value (Magnaporthe grisea; Blast on rice): H (H shows more than 50% of control values)
Test F control value (Phytophthora infestans; [1]): H (H shows more than 50% of control values)

O=c1c(Cl)cc(-c2c(F)c(F)c(F)c(F)c2F)c(-c2c(F)cccc2F)n1CC(F)F [Compound 384]
Test A (control value class) (Magnaporthe grisea; [2]): H (H shows more than 50% of control values)
Test F (control value class) (Phytophthora infestans; [3]): L (L shows 50% or less of control values)

O=c1c(Cl)cc(-c2cc(F)ccc2Cl)c(-c2c(F)cccc2F)n1CC(F)F [Compound 392]
Test A (control value class) (Magnaporthe grisea; [2]): H (H shows more than 50% of control values)
Test F (control value class) (Phytophthora infestans; [3]): L (L shows 50% or less of control values)

CCn1c(-c2c(F)cccc2Cl)c(-c2cc(OC)cc(OC)c2)ccc1=O [Compound 150]
Test A control value (Magnaporthe grisea; Blast on rice): L (L shows 50% or less of control values)
Test F control value (Phytophthora infestans; [1]): L (L shows 50% or less of control values)

CCn1c(-c2c(F)cccc2F)c(-c2cc(Cl)ccc2F)cc(Cl)c1=O [Compound 523]
Test A (control value class) (Magnaporthe grisea; [2]): H (H shows more than 50% of control values)
Test F (control value class) (Phytophthora infestans; [3]): L (L shows 50% or less of control values)

Cn1c(-c2c(F)cccc2F)c(-c2cc(F)cc(F)c2Cl)ccc1=O [Compound 553]
Test A (control value class) (Magnaporthe grisea; [2]): H (H shows more than 50% of control values)
Test F (control value class) (Phytophthora infestans; [3]): H (H shows more than 50% of control values)

Cn1c(-c2c(F)cc(F)cc2F)c(-c2cc(F)cc(F)c2Br)cc(Br)c1=O [Compound 817]
Test A (control value class) (Magnaporthe grisea; [4]): H (H shows more than 50% of control values)
Test F (control value class) (Phytophthora infestans; [5]): L (L shows 50% or less of control values)

COc1cc(F)c(-c2c(-c3ccccc3Cl)ccc(=O)n2C)c(F)c1 [Compound 433]
Test A (control value class) (Magnaporthe grisea; [2]): H (H shows more than 50% of control values)
Test F (control value class) (Phytophthora infestans; [3]): L (L shows 50% or less of control values)

CCN1C(=O)CCC(c2cccc(Cl)c2)=C1c1c(F)cccc1F [Compound 173]
Test A control value (Magnaporthe grisea; Blast on rice): H (H shows more than 50% of control values)
Test F control value (Phytophthora infestans; [1]): H (H shows more than 50% of control values)

Cc1cc(-c2cccc(F)c2F)c(-c2c(F)cc(F)cc2F)n(C)c1=O [Compound 564]
Test A (control value class, blast on rice) (Magnaporthe grisea): H (H shows more than 50% of control values)
Test F (control value class, late blight on tomato) (Phytophthora infestans; [6]): L (L shows 50% or less of control values)

Cn1c(-c2c(F)cc(F)cc2F)c(-c2cc(F)cc(F)c2)cc(Br)c1=O [Compound 805]
Test A (control value class) (Magnaporthe grisea; [4]): H (H shows more than 50% of control values)
Test F (control value class) (Phytophthora infestans; [5]): L (L shows 50% or less of control values)

O=c1ccc(-c2cc(F)ccc2Cl)c(-c2c(F)cccc2F)n1CC(F)F [Compound 391]
Test A (control value class) (Magnaporthe grisea; [2]): H (H shows more than 50% of control values)
Test F (control value class) (Phytophthora infestans; [3]): L (L shows 50% or less of control values)

Cn1c(-c2c(F)cccc2F)c(-c2ccccc2C(F)(F)F)cc(Cl)c1=O [Compound 158]
Test A control value (Magnaporthe grisea; Blast on rice): H (H shows more than 50% of control values)
Test F control value (Phytophthora infestans; [1]): L (L shows 50% or less of control values)

COc1cc(F)c(-c2c(-c3cc(F)cc(F)c3)cc(Cl)c(=O)n2C)c(F)c1 [Compound 807]
Test A (control value class) (Magnaporthe grisea; [4]): H (H shows more than 50% of control values)
Test F (control value class) (Phytophthora infestans; [5]): L (L shows 50% or less of control values)
